Measurements published in patent US20210324028A1 (Pfizer, published 2021).

Assays:
[1] = target: T1, mouse PD-1 on doxycycline-induced 32D[pRF770+pRF791] cells (mouse, UniProt Q02242 25-288); assay: cell-based or functional assay
T1 sequence (looked up): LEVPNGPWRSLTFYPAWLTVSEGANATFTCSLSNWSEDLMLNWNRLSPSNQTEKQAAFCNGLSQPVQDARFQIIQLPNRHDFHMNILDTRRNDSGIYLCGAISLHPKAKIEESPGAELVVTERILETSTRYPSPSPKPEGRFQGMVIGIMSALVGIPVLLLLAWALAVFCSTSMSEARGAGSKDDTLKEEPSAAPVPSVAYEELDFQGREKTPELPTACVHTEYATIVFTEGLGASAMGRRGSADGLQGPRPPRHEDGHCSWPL

[2] = target: T2, IL-15 signaling receptor on 32D[pRF770+pRF791] cells (human CD122 plus mouse CD132) (human; mouse, UniProt P14784 27-551; P34902 23-369); assay: cell-based or functional assay
T2 sequence (looked up) 1: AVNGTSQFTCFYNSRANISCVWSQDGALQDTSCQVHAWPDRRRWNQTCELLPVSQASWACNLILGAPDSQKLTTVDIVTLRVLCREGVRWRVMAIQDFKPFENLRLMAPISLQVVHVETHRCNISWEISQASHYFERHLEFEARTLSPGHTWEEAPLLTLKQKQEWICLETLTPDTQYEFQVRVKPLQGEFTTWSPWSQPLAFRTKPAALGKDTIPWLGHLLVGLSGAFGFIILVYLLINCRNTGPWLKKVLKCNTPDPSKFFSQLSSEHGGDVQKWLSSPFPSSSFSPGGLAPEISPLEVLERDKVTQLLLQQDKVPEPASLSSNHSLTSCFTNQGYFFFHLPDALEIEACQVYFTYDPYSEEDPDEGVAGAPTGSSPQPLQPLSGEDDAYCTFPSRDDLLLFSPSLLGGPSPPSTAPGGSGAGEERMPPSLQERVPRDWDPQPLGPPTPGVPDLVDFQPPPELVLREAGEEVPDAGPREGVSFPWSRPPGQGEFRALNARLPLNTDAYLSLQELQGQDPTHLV
T2 sequence (looked up) 2: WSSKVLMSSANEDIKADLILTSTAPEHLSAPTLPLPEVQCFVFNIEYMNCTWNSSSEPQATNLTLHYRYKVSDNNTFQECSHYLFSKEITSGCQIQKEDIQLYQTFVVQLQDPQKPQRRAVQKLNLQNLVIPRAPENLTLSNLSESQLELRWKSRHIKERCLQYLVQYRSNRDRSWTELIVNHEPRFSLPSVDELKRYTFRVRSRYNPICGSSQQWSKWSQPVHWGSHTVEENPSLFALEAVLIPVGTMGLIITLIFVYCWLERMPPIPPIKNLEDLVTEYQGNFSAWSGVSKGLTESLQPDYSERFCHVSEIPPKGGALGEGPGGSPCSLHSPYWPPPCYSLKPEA

human IL-2Rβ = target: T3, human IL-2Rβ (human, UniProt P14784 27-240, limits assumed); assay: SPR, steady state, fusion captured
T3 construct: also called hIL-2Rβ; IL-2 receptor beta
T3 sequence (looked up): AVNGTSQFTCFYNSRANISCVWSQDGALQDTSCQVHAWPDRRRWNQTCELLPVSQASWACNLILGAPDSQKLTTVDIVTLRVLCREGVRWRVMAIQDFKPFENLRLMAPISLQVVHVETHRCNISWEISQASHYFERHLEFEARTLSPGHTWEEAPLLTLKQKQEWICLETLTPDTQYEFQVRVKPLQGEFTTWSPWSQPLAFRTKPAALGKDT
Protocol: (§1) Anti-human Fc sensor chips were prepared at 25° C. with a running buffer of 10 mM HEPES, 150 mM NaCl, 0.05% (v/v) Tween-20, pH 7.4. All surfaces of a Biacore CM4 sensor chip were activated with a 1:1 (v/v) mixture of 400 mM EDC and 100 mM NHS for 7 minutes, at a flow rate of 10 μL/min. An anti-human Fc reagent (Goat anti-human IgG Fc-γ specific, SouthernBiotech, Birmingham, Ala., Catalog #2014-01) was diluted to 50 μg/mL in 10 mM sodium acetate (pH 4.5) and injected on all flow cells for 7 minutes at 20 μL/min. All flow cells were blocked with 100 mM ethylenediamine in 200 mM Borate buffer pH 8.5 for 7 minutes at 10 μL/min.
(§2) All protein interaction experiments were performed at 37° C. using a running buffer of 10 mM HEPES, 150 mM NaCl, 0.05% (v/v) Tween-20, pH 7.4, 1 mg/mL BSA. Anti-PD-1-hIL-15 fusion proteins were captured at 10 μg/mL at a flow rate of 10 μL/min for 2 minutes. Different fusion proteins were captured in flow cells 2, 3 and 4. No protein was captured onto flow cell 1 which was used as a reference surface. […] After each analyte injection, dissociation was monitored for 5 minutes followed by regeneration of all flow cells with three 60-second injections of 75 mM phosphoric acid. […] For kinetic analysis, the double-referenced sensorgrams were fit globally to a simple 1:1 Langmuir with mass transport binding model using Biacore T200 Evaluation Software version 2.0. For steady-state affinity analysis, the double-referenced equilibrium binding responses were fit with a 1:1 Langmuir steady-state model using Biacore T200 Evaluation Software version 2.0.

human IL-15Rα = target: T4, human IL-15Rα (human, UniProt Q13261 31-205, limits assumed); assay: SPR 37C, fusion captured by anti-human Fc
human IL-15Rα, sequence (Q13261 31-205 limits assumed): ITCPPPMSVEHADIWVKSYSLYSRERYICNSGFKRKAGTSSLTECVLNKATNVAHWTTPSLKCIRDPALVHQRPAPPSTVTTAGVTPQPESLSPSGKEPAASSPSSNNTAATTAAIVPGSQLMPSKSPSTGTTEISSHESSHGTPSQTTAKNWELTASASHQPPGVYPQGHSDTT
T4 construct: also called hIL-15Rα; IL-15 receptor alpha
Protocol: as §1, §2

B1: xmPD-1-hIL15Rasu-hIL15(E64Q/D30N) (other)
heavy 1: HHHHHHHHGGGGSGSGGEVQLVESGGGLVKPGGSLELSCAASGFTFSSYWMSWVRQAPEKGLEWVAAISPSGGSTYYADSVKGRFTISRDNAKNTLFLQMTSLRSEDTAMYYCAKESWGAYYDLWGQGTTVTVSSASTKGPSVFPLAPCSRSTSESTAALGCLVKDYFPEPVTVSWNSGALTSGVHTFPAVLQSSGLYSLSSVVTVPSSNFGTQTYTCNVDHKPSNTKVDKTVERKCRVRCPRCPAPPVAGPSVFLFPPKPKDTLMISRTPEVTCVVVAVSHEDPEVQFNWYVDGVEVHNAKTKPREEQFNSTFRVVSVLTVVHQDWLNGKEYKCKVSNKGLPSSIEKTISKTKGQPREPQVYTLPPSREEMTKNQVSLTCLVKGFYPSDIAVEWESNGQPENNYKTTPPMLDSDGSFFLYSRLTVDKSRWQQGNVFSCSVMHEALHNHYTQKSLSLSPGK
heavy 2: EVQLVESGGGLVKPGGSLELSCAASGFTFSSYWMSWVRQAPEKGLEWVAAISPSGGSTYYADSVKGRFTISRDNAKNTLFLQMTSLRSEDTAMYYCAKESWGAYYDLWGQGTTVTVSSASTKGPSVFPLAPCSRSTSESTAALGCLVKDYFPEPVTVSWNSGALTSGVHTFPAVLQSSGLYSLSSVVTVPSSNFGTQTYTCNVDHKPSNTKVDKTVERKCEVECPECPAPPVAGPSVFLFPPKPKDTLMISRTPEVTCVVVAVSHEDPEVQFNWYVDGVEVHNAKTKPREEQFNSTFRVVSVLTVVHQDWLNGKEYKCKVSNKGLPSSIEKTISKTKGQPREPQVYTLPPSREEMTKNQVSLTCEVKGFYPSDIAVEWESNGQPENNYKTTPPMLDSDGSFFLYSKLTVDKSRWQQGNVFSCSVMHEALHNHYTQKSLSLSPGSGGGGGTSATATPGAITCPPPMSVEHADIWVKSYSLYSRERYICNSGFKRKAGTSSLTECVLNKATNVAHWTTPSLKCIRDPALVHQRPAPPSGGSGGGGSGGGSGGGGSGG[about 120 residues with changes left out here]
light: DIVMTQSPSSLSVSAGDKVTMSCRASQGISSWLAWYQQKPWQPPKLLIYKASTLESGVPDRFTGSGSGTDFTLTISSVQAEDLAVYYCQQSYSTPWTFGGGTKLEIKGTVAAPSVFIFPPSDEQLKSGTASVVCLLNNFYPREAKVQWKVDNALQSGNSQESVTEQDSKDSTYSLSSTLTLSKADYEKHKVYACEVTHQGLSSPVTKSFNRGEC
notes: not restated for this mutant
Fold change = EC50 (PD-1(low))/EC50 (PD-1+) [1]: 360 fold
pSTAT5 EC50 on PD-1+ 32D reporter cells [1]: 69 pM
pSTAT5 EC50 on PD-1(low) 32D reporter cells [2]: 24.9 nM
Kd (human IL-2Rβ): 271 nM
binding result (human IL-15Rα): no binding (tested: 3000 nM)
